Assay results as given in article PMC4049591.
No constants are given. Whether binding was seen depends on the method and setting. In cells and extracts the contact can be indirect. Some entries that bind do so weakly or less than the wild type. Sequences can lack the tags named with a protein.

Legend:
Experiment in all cases: co-IP; 293T cells transfected with Myc-tagged EDEMs (10% of the DNA normally used); lysed in buffer with 1% Triton; immunoprecipitated with Myc antibodies; blotted for endogenous SEL1L, HRD1, Bip, calnexin and ERp57
[1] = target: T1, Myc-tagged wild type EDEM1 (human) (UniProt Q92611)
T1 sequence: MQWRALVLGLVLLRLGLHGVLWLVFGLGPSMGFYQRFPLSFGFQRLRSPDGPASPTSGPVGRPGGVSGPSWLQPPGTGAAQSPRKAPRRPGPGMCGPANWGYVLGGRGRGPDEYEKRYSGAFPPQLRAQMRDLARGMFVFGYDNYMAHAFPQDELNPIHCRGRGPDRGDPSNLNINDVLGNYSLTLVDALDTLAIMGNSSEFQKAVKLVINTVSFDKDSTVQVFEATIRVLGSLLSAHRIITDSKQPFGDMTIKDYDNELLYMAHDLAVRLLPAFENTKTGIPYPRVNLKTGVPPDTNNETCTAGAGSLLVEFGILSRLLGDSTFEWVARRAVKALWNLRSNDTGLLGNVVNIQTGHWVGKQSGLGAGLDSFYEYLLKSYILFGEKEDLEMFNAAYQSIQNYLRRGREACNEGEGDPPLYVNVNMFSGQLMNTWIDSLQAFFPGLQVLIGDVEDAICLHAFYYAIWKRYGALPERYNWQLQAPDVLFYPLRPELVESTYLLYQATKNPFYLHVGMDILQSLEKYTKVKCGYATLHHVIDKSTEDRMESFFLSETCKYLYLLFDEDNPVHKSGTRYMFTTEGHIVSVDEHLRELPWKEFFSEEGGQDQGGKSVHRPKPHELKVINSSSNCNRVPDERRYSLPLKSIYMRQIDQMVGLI

[2] = target: T2, Myc-tagged EDEM3 active site mutant D293N (human) (UniProt Q9BZQ6)
T2 sequence: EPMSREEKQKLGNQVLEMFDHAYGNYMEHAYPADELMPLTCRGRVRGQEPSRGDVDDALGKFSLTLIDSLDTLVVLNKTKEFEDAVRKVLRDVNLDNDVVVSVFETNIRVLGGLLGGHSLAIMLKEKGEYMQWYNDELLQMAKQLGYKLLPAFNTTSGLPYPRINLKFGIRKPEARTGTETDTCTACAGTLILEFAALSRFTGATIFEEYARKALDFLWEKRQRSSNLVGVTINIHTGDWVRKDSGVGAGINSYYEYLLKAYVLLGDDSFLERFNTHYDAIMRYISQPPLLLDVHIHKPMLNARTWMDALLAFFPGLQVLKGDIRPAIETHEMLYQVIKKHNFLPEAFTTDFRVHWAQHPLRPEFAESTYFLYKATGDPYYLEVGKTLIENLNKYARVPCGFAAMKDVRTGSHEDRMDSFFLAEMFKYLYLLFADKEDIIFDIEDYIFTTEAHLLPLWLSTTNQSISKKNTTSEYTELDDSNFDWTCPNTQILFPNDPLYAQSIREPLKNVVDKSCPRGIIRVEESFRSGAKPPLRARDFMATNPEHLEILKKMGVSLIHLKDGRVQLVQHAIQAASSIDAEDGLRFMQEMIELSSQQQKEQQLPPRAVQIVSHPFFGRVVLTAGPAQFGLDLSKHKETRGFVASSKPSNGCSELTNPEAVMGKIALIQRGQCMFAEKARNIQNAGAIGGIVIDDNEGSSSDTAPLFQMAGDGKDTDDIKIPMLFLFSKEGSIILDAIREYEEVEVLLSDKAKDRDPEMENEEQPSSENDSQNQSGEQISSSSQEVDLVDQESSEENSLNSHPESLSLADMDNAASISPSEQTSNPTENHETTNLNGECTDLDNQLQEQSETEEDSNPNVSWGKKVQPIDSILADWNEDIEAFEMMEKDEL

[3] = target: T3, Myc-tagged EDEM2 active site mutant D258N (human) (UniProt Q9BV94)
T3 sequence: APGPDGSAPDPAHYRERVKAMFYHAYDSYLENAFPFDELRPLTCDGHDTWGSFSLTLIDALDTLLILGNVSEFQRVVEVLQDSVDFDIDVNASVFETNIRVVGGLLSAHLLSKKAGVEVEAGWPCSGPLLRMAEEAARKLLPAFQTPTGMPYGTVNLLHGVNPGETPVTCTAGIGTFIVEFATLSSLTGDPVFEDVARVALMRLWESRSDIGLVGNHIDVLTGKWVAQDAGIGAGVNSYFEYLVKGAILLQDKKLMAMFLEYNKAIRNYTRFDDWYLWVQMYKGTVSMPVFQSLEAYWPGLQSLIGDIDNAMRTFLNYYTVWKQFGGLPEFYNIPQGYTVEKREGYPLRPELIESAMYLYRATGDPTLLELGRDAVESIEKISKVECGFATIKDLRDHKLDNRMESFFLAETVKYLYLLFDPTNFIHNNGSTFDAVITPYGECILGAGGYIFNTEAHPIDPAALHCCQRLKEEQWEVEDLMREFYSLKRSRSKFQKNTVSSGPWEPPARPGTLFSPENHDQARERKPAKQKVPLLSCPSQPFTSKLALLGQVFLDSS

binding [1]: binds
binding [2]: binds
binding [3]: binds
B1: Calnexin (protein, UniProt P27824 21-592)
chain: HDGHDDDVIDIEDDLDDVIEEVEDSKPDTTAPPSSPKVTYKAPVPTGEVYFADSFDRGTLSGWILSKAKKDDTDDEIAKYDGKWEVEEMKESKLPGDKGLVLMSRAKHHAISAKLNKPFLFDTKPLIVQYEVNFQNGIECGGAYVKLLSKTPELNLDQFHDKTPYTIMFGPDKCGEDYKLHFIFRHKNPKTGIYEEKHAKRPDADLKTYFTDKKTHLYTLILNPDNSFEILVDQSVVNSGNLLNDMTPPVNPSREIEDPEDRKPEDWDERPKIPDPEAVKPDDWDEDAPAKIPDEEATKPEGWLDDEPEYVPDPDAEKPEDWDEDMDGEWEAPQIANPRCESAPGCGVWQRPVIDNPNYKGKWKPPMIDNPSYQGIWKPRKIPNPDFFEDLEPFRMTPFSAIGLELWSMTSDIFFDNFIICADRRIVDDWANDGWGLKKAADGAAEPGVVGQMIEAAEERPWLWVVYILTVALPVFLVILFCCSGKKQTSGMEYKKTDAPQPDVKEEEEEKEEEKDKGDEEEEGEEKLEEKQKSDAEEDGGTVSQEEEDRKPKAEEDEILNRSPRNRKPRRE
